The other results are listed elsewhere or left out. Single values are uncertain, as repeats are few or missing.
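Further: cell number obtained by counting DAPI-stained nuclei in high-throughput microscope images with image analysis software, screen run in 1,536-well plates.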

One assay relates to COLO829. The assay can be described thus: cell count relative to DMSO control; melanoma cells; higher = more viable cells. The note with it: library dose: low library concentration; 72 h.
`Nc1cccc2c1CN(C1CCC(=O)NC1=O)C2=O` (centres undefined) [lenalidomide] + Cn1nnc2c(C(N)=O)ncn2c1=O [temozolomide] (first compound 1 µM, partner dose 2 µM) gave a cell count of 79.8%.

In the case of `O=C(CCCCCCC(=O)Nc1ccccc1)NO` [vorinostat] + COc1cc(Nc2ncc(F)c(Nc3ccc4c(n3)NC(=O)C(C)(C)O4)n2)cc(OC)c1OC [Tamatinib] (first compound 0.08 µM, partner dose 0.4 µM), the cell count is 88.8%. Regarding `Cn1c(Nc2ccc(C(F)(F)F)cc2)nc2cc(Oc3ccnc(-c4ncc(C(F)(F)F)[nH]4)c3)ccc21` + Cn1cncc1[C@@](N)(c1ccc(Cl)cc1)c1ccc2c(c1)c(-c1cccc(Cl)c1)cc(=O)n2C [tipifarnib] (first compound 0.08 µM, partner dose 0.01 µM), the cell count was 83.8%.

Take `C#Cc1cccc(Nc2ncnc3cc(OCCOC)c(OCCOC)cc23)c1` [erlotinib] + Cn1c(Nc2ccc(C(F)(F)F)cc2)nc2cc(Oc3ccnc(-c4ncc(C(F)(F)F)[nH]4)c3)ccc21 [CHIR265] (first compound 0.8 µM, partner dose 0.08 µM): the cell count was 88.8%.

With `Clc1ccc(Nc2nnc(Cc3ccncc3)c3ccccc23)cc1` [vatalanib] + C#Cc1cccc(Nc2ncnc3cc(OCCOC)c(OCCOC)cc23)c1 [erlotinib] (first compound 2 µM, partner dose 0.8 µM), the cell count is 87.3%. On to `OCc1c[nH]c2ccccc12` [Indole-3-carbinol] + Nc1cccc2c1CN(C1CCC(=O)NC1=O)C2=O [lenalidomide] (first compound 0.8 µM, partner dose 1 µM), for which the cell count was found to be 105%.

Turning to `Clc1ccc(Nc2nnc(Cc3ccncc3)c3ccccc23)cc1` [vatalanib] + Cn1c(Nc2ccc(C(F)(F)F)cc2)nc2cc(Oc3ccnc(-c4ncc(C(F)(F)F)[nH]4)c3)ccc21 [CHIR265] (first compound 2 µM, partner dose 0.08 µM), the cell count stood at 87.3%. The compound `Cn1c(Nc2ccc(C(F)(F)F)cc2)nc2cc(Oc3ccnc(-c4ncc(C(F)(F)F)[nH]4)c3)ccc21` + C[C@]1(c2nc3c(C(N)=O)cccc3[nH]2)CCCN1 [Veliparib] (first compound 0.08 µM, partner dose 1.4 µM) displayed a cell count of 75.2%. On to `OCc1c[nH]c2ccccc12` [Indole-3-carbinol] + Cc1nc(Nc2ncc(C(=O)Nc3c(C)cccc3Cl)s2)cc(N2CCN(CCO)CC2)n1 [dasatanib] (first compound 0.8 µM, partner dose 0.004 µM), for which the cell count is 76.7%. As to `Cn1c(Nc2ccc(C(F)(F)F)cc2)nc2cc(Oc3ccnc(-c4ncc(C(F)(F)F)[nH]4)c3)ccc21` + COCC[n+]1c2c(n(Cc3cnccn3)c1C)C(=O)c1ccccc1C2=O [YM155] (first compound 0.08 µM, partner dose 0.0004 µM), the cell count was 99.5%.

In turn, `Clc1ccc(Nc2nnc(Cc3ccncc3)c3ccccc23)cc1` [vatalanib] + C=CCn1c(=O)c2cnc(Nc3ccc(N4CCN(C)CC4)cc3)nc2n1-c1cccc(C(C)(C)O)n1 [MK1775] (first compound 2 µM, partner dose 0.02 µM) yielded a cell count of 92%. In the case of `Clc1ccc(Nc2nnc(Cc3ccncc3)c3ccccc23)cc1` [vatalanib] + Nc1cccc2c1CN(C1CCC(=O)NC1=O)C2=O [lenalidomide] (first compound 2 µM, partner dose 1 µM), the cell count worked out at 82.8%.

The subject of another assay is G361. Described as above. Conditions: library dose: low library concentration; 72 h.
`OCc1c[nH]c2ccccc12` [Indole-3-carbinol] + COCC[n+]1c2c(n(Cc3cnccn3)c1C)C(=O)c1ccccc1C2=O [YM155] (first compound 0.8 µM, partner dose 0.0004 µM): the cell count stood at 119%. On the same count and under the same terms, for `OCc1c[nH]c2ccccc12` [Indole-3-carbinol] + C[C@]1(c2nc3c(C(N)=O)cccc3[nH]2)CCCN1 [Veliparib] (first compound 0.8 µM, partner dose 1.4 µM) the value was 108%; for `OCc1c[nH]c2ccccc12` [Indole-3-carbinol] + C#Cc1cccc(Nc2ncnc3cc(OCCOC)c(OCCOC)cc23)c1 [erlotinib] (first compound 0.8 µM, partner dose 0.8 µM), 85.7%. The compound `C#Cc1cccc(Nc2ncnc3cc(OCCOC)c(OCCOC)cc23)c1` [erlotinib] + Cn1nnc2c(C(N)=O)ncn2c1=O [temozolomide] (first compound 0.8 µM, partner dose 2 µM) showed a cell count of 87.9%. In the case of `C#Cc1cccc(Nc2ncnc3cc(OCCOC)c(OCCOC)cc23)c1` [erlotinib] + Cc1nc(Nc2ncc(C(=O)Nc3c(C)cccc3Cl)s2)cc(N2CCN(CCO)CC2)n1 [dasatanib] (first compound 0.8 µM, partner dose 0.004 µM), the cell count was 103%. `Cn1c(Nc2ccc(C(F)(F)F)cc2)nc2cc(Oc3ccnc(-c4ncc(C(F)(F)F)[nH]4)c3)ccc21` + Cn1nnc2c(C(N)=O)ncn2c1=O [temozolomide] (first compound 0.08 µM, partner dose 2 µM) returned a cell count of 41.4%. Same read-out and setting: for `COCC[n+]1c2c(n(Cc3cnccn3)c1C)C(=O)c1ccccc1C2=O` + C[C@]1(c2nc3c(C(N)=O)cccc3[nH]2)CCCN1 [Veliparib] (first compound 0.0004 µM, partner dose 1.4 µM) the value was 105%; for `OCc1c[nH]c2ccccc12` [Indole-3-carbinol] + COc1cc(Nc2ncc(F)c(Nc3ccc4c(n3)NC(=O)C(C)(C)O4)n2)cc(OC)c1OC [Tamatinib] (first compound 0.8 µM, partner dose 0.4 µM), 94.2%. As for `Clc1ccc(Nc2nnc(Cc3ccncc3)c3ccccc23)cc1` [vatalanib] + C[C@@H]1CCN(C(=O)CC#N)C[C@@H]1N(C)c1ncnc2[nH]ccc12 [CP690550] (first compound 2 µM, partner dose 1 µM), the cell count was 95.8%. Still for that read-out and setting: for `C#Cc1cccc(Nc2ncnc3cc(OCCOC)c(OCCOC)cc23)c1` [erlotinib] + COCC[n+]1c2c(n(Cc3cnccn3)c1C)C(=O)c1ccccc1C2=O [YM155] (first compound 0.8 µM, partner dose 0.0004 µM) the value was 89.3%. As to `Clc1ccc(Nc2nnc(Cc3ccncc3)c3ccccc23)cc1` [vatalanib] + COCC[n+]1c2c(n(Cc3cnccn3)c1C)C(=O)c1ccccc1C2=O [YM155] (first compound 2 µM, partner dose 0.0004 µM), the cell count was 89%.

With `OCc1c[nH]c2ccccc12` [Indole-3-carbinol] + COc1ccc(Cl)c(Nc2nc3ccccc3nc2NS(=O)(=O)c2cccc(NC(=O)C(C)(C)N)c2)c1 [XL147] (first compound 0.8 µM, partner dose 0.8 µM), the cell count stood at 100%.

For `Nc1cccc2c1CN(C1CCC(=O)NC1=O)C2=O` (centres undefined) [lenalidomide] + C[C@]1(c2nc3c(C(N)=O)cccc3[nH]2)CCCN1 [Veliparib] (first compound 1 µM, partner dose 1.4 µM), the cell count stood at 89.1%.

`COCC[n+]1c2c(n(Cc3cnccn3)c1C)C(=O)c1ccccc1C2=O` + O=C(CCCCCCC(=O)Nc1ccccc1)NO [vorinostat] (first compound 0.0004 µM, partner dose 0.08 µM) displayed a cell count of 100%. In turn, `OCc1c[nH]c2ccccc12` [Indole-3-carbinol] + Cn1c(Nc2ccc(C(F)(F)F)cc2)nc2cc(Oc3ccnc(-c4ncc(C(F)(F)F)[nH]4)c3)ccc21 [CHIR265] (first compound 0.8 µM, partner dose 0.08 µM) showed a cell count of 61.6%. Consider `COCC[n+]1c2c(n(Cc3cnccn3)c1C)C(=O)c1ccccc1C2=O` + Nc1cccc2c1CN(C1CCC(=O)NC1=O)C2=O [lenalidomide] (first compound 0.0004 µM, partner dose 1 µM), for which the cell count was found to be 100%. `COCC[n+]1c2c(n(Cc3cnccn3)c1C)C(=O)c1ccccc1C2=O` + Cn1nnc2c(C(N)=O)ncn2c1=O [temozolomide] (first compound 0.0004 µM, partner dose 2 µM) displayed a cell count of 123%.

`Clc1ccc(Nc2nnc(Cc3ccncc3)c3ccccc23)cc1` [vatalanib] + COc1ccc(Cl)c(Nc2nc3ccccc3nc2NS(=O)(=O)c2cccc(NC(=O)C(C)(C)N)c2)c1 [XL147] (first compound 2 µM, partner dose 0.8 µM) gave a cell count of 95.2%. `Cn1c(Nc2ccc(C(F)(F)F)cc2)nc2cc(Oc3ccnc(-c4ncc(C(F)(F)F)[nH]4)c3)ccc21` + C[C@@H]1CCN(C(=O)CC#N)C[C@@H]1N(C)c1ncnc2[nH]ccc12 [CP690550] (first compound 0.08 µM, partner dose 1 µM): the cell count was 68.1%. In turn, `Clc1ccc(Nc2nnc(Cc3ccncc3)c3ccccc23)cc1` [vatalanib] + Cc1nc(Nc2ncc(C(=O)Nc3c(C)cccc3Cl)s2)cc(N2CCN(CCO)CC2)n1 [dasatanib] (first compound 2 µM, partner dose 0.004 µM) yielded a cell count of 76.5%. `C#Cc1cccc(Nc2ncnc3cc(OCCOC)c(OCCOC)cc23)c1` [erlotinib] + Nc1cccc2c1CN(C1CCC(=O)NC1=O)C2=O [lenalidomide] (first compound 0.8 µM, partner dose 1 µM) registered a cell count of 96.4%. `Clc1ccc(Nc2nnc(Cc3ccncc3)c3ccccc23)cc1` [vatalanib] + Cn1nnc2c(C(N)=O)ncn2c1=O [temozolomide] (first compound 2 µM, partner dose 2 µM) came in with a cell count of 74.3%.

The values are drawn from the supplement of paper PMC4604168 (melanoma cell lines).
